Assay results taken from the supplement of paper PMC8512760.
Where a name gives a salt, the structure may show the parent alone. The list shows a part of the results. Repeats are few or missing, and single values can be far off.

Key:
Experiment in all cases: cell viability relative to vehicle (% of vehicle); basal-like triple-negative breast cancer lines; higher = less cytotoxic
Settings in all cases: 10 µM; 72 h
HCC-1143 = tested on: HCC-1143
HCC-1187 = tested on: HCC-1187
MDA-468 = tested on: MDA-468
SUM-149 = tested on: SUM-149
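Note: stably firefly luciferase-GFP labeled cells in 96-well plates, viability read as luciferase photon flux after d-luciferin addition, treated wells normalized to vehicle wells, single-dose high-throughput screen.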

| SMILES | cell viability (HCC-1143) | cell viability (HCC-1187) | cell viability (MDA-468) | cell viability (SUM-149) |
| --- | --- | --- | --- | --- |
| CC(=O)OC1(C(C)=O)CCC2C3CCC4=CC(=O)CCC4=C3C(c3ccc(N(C)C)cc3)CC21C (centres undefined) [Ulipristal acetate] | 78.6 | 78.4 | 97.3 | 106 |
| O=C([O-])CCCc1ccccc1.[Na+] [Sodium Phenylbutyrate] | 96.1 | 91.8 | 97.6 | 129 |
| CCCc1nc(C(C)(C)O)c(C(=O)O)n1Cc1ccc(-c2ccccc2-c2nn[nH]n2)cc1 [Olmesartan] | 98.7 | 126 | 97.9 | 137 |
| CC12CCC3c4ccc(O)cc4CCC3C1CCC2=O (centres undefined) [Estrone] | 79.6 | 92.7 | 137 | 111 |
| Cc1cc(C=CC#N)cc(C)c1Nc1ccnc(Nc2ccc(C#N)cc2)n1 [Rilpivirine] | 92.2 | 84.7 | 83.1 | 109 |
| CCC(=O)OCC(=O)C1(OC(=O)CC)C(C)CC2C3CCC4=CC(=O)C=CC4(C)C3(F)C(O)CC21C (centres undefined) [Betamethasone Dipropionate] | 85.9 | 136 | 172 | 176 |
| CC(=O)O.CC(=O)O.CCC(C)CC(C)CCCCCCCCC(=O)NC1CC(O)C(NCCN)NC(=O)C2C(O)CCN2C(=O)C(C(O)CCN)NC(=O)C(C(O)C(O)c2ccc(O)cc2)NC(=O)C2CC(O)CN2C(=O)C(C(C)O)NC1=O (centres undefined) [Caspofungin Acetate] | 83.2 | 107 | 95.8 | 104 |
| CCc1nc(N)nc(N)c1-c1ccc(Cl)cc1 [Pyrimethamine] | 90.3 | 68.5 | 73.3 | 85.7 |
| CCCCc1oc2ccc(NS(C)(=O)=O)cc2c1C(=O)c1ccc(OCCCN(CCCC)CCCC)cc1.Cl [Dronedarone HCl] | 99 | 96 | 135 | 114 |
| CN1CCN(CCCN2c3ccccc3Sc3ccc(C(F)(F)F)cc32)CC1.Cl.Cl [Trifluoperazine 2HCl] | 81.2 | 85.8 | 102 | 69 |
| CCOC(=O)c1ccc(C#Cc2ccc3c(c2)C(C)(C)CCS3)nc1 [Tazarotene] | 84 | 117 | 113 | 107 |
| Cc1nc(Nc2ncc(C(=O)Nc3c(C)cccc3Cl)s2)cc(N2CCN(CCO)CC2)n1 | 39.5 | 65.8 | 146 | 40.8 |
| O=C(O)C=Cc1ccccc1 [Cinnamic acid] | 105 | 101 | 128 | 108 |
| C=C[C@]1(C)C[C@@H](OC(=O)CSC(C)(C)CNC(=O)[C@H](N)C(C)C)[C@]2(C)[C@H](C)CC[C@]3(CCC(=O)[C@H]32)[C@@H](C)[C@@H]1O [Valnemulin HCl] | 63.6 | 95 | 104 | 102 |
| CON=C(C(=O)NC1C(=O)N2C(C(=O)O)=C(CSC(=O)c3ccco3)CSC12)c1csc(N)n1.Cl (centres undefined) [Ceftiofur HCl] | 71.6 | 73.8 | 107 | 136 |
| O=N[O-].[Na+] [Sodium Nitrite] | 95.8 | 110 | 108 | 91.9 |
| CC(C)(C)C(=O)C(Oc1ccc(Cl)cc1)n1ccnc1 (centres undefined) [Climbazole] | 79.8 | 97.1 | 113 | 111 |
| CCC(CC)C(NC(C)=O)C1C(N=C(N)N)CC(C(=O)O)C1O (centres undefined) [Peramivir] | 95.4 | 112 | 92.3 | 130 |
| CC(C)CC(NC(=O)C(CCc1ccccc1)NC(=O)CN1CCOCC1)C(=O)NC(Cc1ccccc1)C(=O)NC(CC(C)C)C(=O)C1(C)CO1 (centres undefined) [Carfilzomib (PR-171)] | 23.3 | 22.3 | 23.6 | 35.6 |
| CC(C)Nc1cc(-c2c[nH]c(C(=O)NC(CO)c3cccc(Cl)c3)c2)c(Cl)cn1 (centres undefined) | 77.9 | 83.2 | 135 | 114 |
| Cl.N=C(N)N [Guanidine HCl] | 87.8 | 116 | 109 | 92.1 |

| SMILES | cell viability (HCC-1143) | cell viability (HCC-1187) | cell viability (MDA-468) | cell viability (SUM-149) |
| --- | --- | --- | --- | --- |
| CCc1cc(C(N)=S)ccn1 [Ethionamide] | 77.4 | 83.2 | 99.9 | 98.4 |
| Nc1ncnc2c1ncn2C1OC(CO)C(O)C1O (centres undefined) [Adenosine] | 79.5 | 85.5 | 114 | 132 |
| O=C(O)c1cc(=O)c2ccccc2o1 [Chromocarb] | 74.5 | 98.1 | 92 | 77.1 |
| CN1C2=CC(=O)C(=NNC(N)=O)C=C2CC1S(=O)(=O)[O-].[Na+] (centres undefined) [Carbazochrome sodium sulfonate (AC-17)] | 78.4 | 75.2 | 106 | 118 |
| CCOC(=O)C1=C(C)NC(C)=C(C(=O)OCC)C1c1ccccc1C=CC(=O)OC(C)(C)C [Lacidipine] | 79.6 | 80.3 | 111 | 136 |
| Cc1ccc(Nc2nccc(N(C)c3ccc4c(C)n(C)nc4c3)n2)cc1S(N)(=O)=O.Cl [Pazopanib Hydrochloride] | 81.8 | 97.8 | 103 | 95.2 |
| CC[C@@]1(O)C(=O)OCc2c1cc1n(c2=O)Cc2cc3c(CN(C)C)c(O)ccc3nc2-1 [Topotecan] | 33.1 | 29 | 32.2 | 35.2 |
| CCOc1nc2cccc(C(=O)OC(C)OC(=O)OC3CCCCC3)c2n1Cc1ccc(-c2ccccc2-c2nn[nH]n2)cc1 (centres undefined) [Candesartan Cilexetil] | 104 | 78.9 | 99.8 | 138 |
| CC12CCC3c4ccc(O)cc4CCC3C1CCC2O (centres undefined) [Estradiol] | 78.6 | 82.7 | 99.4 | 120 |
| Cl.Cl.Fc1ccc(C(c2ccc(F)cc2)N2CCN(CC=Cc3ccccc3)CC2)cc1 [Flunarizine 2HCl] | 89.1 | 88.5 | 102 | 107 |
| C[C@@H]1C\C=C/C=C\C=C/C=C\[C@H](O[C@@H]2O[C@H](C)[C@@H](O)[C@H](N)[C@@H]2O)C[C@@H]2O[C@](O)(C[C@@H](O)C[C@H]3O[C@@H]3/C=C\C(=O)O1)C[C@H](O)[C@H]2C(=O)O [Natamycin] | 64.7 | 63.4 | 87.4 | 136 |
| CC1(C)O[C@@H]2C[C@H]3[C@@H]4CCC5=CC(=O)CC[C@]5(C)[C@@]4(F)[C@@H](O)C[C@]3(C)[C@]2(C(=O)CCl)O1 [Halcinonide] | 80.1 | 108 | 148 | 154 |
| CC(C(=O)O)c1ccc2c(c1)[nH]c1ccc(Cl)cc12 (centres undefined) [Carprofen] | 108 | 123 | 126 | 114 |
| CC(C)NCC(O)c1ccc(NS(C)(=O)=O)cc1.Cl (centres undefined) [Sotalol] | 79.2 | 102 | 98.1 | 130 |
| Cn1c(=O)c2[nH]cnc2n(C)c1=O [Theophylline] | 74.2 | 78 | 101 | 80.6 |
| C[C@@H]1NC(=O)[C@@H](N)CNC(=O)[C@H](C2CCNC(=N)N2)NC(=O)/C(=C/NC(N)=O)NC(=O)[C@H](CNC(=O)CC(N)CCCN)NC1=O.N=C1NCC[C@H]([C@@H]2NC(=O)/C(=C/NC(N)=O)NC(=O)[C@H](CNC(=O)C[C@@H](N)CCCN)NC(=O)[C@H](CO)NC(=O)[C@@H](N)CNC2=O)N1 [Capreomycin Sulfate] | 67.1 | 76.5 | 107 | 85.6 |
| c1cn2cc(-c3ccc4cn[nH]c4c3)nc(Nc3ccc(N4CCOCC4)cc3)c2n1 | 35.1 | 35.6 | 41.8 | 39.8 |
| O=c1ccn(C2OC(CO)C(O)C2O)c(=O)[nH]1 (centres undefined) [Uridine] | 112 | 85.3 | 111 | 112 |
| COc1ccc(C2Sc3ccccc3N(CCN(C)C)C(=O)C2OC(C)=O)cc1.Cl (centres undefined) [Diltiazem HCl] | 84.6 | 97.5 | 95.2 | 103 |
| CCN(CC)C(=S)SSC(=S)N(CC)CC [Disulfiram] | 79.1 | 17.1 | 39.7 | 132 |
